# Measurements reported in the supplement of paper PMC3334620.
# The full ranking holds about 33,000 sequences; the median of “E-score (-0.5 to 0.5)” is about -0.035, and the highest 2% start at about 0.35. Some of the results follow.
# Target: T1, Pdr3 (UniProt P33200)
# T1 sequence: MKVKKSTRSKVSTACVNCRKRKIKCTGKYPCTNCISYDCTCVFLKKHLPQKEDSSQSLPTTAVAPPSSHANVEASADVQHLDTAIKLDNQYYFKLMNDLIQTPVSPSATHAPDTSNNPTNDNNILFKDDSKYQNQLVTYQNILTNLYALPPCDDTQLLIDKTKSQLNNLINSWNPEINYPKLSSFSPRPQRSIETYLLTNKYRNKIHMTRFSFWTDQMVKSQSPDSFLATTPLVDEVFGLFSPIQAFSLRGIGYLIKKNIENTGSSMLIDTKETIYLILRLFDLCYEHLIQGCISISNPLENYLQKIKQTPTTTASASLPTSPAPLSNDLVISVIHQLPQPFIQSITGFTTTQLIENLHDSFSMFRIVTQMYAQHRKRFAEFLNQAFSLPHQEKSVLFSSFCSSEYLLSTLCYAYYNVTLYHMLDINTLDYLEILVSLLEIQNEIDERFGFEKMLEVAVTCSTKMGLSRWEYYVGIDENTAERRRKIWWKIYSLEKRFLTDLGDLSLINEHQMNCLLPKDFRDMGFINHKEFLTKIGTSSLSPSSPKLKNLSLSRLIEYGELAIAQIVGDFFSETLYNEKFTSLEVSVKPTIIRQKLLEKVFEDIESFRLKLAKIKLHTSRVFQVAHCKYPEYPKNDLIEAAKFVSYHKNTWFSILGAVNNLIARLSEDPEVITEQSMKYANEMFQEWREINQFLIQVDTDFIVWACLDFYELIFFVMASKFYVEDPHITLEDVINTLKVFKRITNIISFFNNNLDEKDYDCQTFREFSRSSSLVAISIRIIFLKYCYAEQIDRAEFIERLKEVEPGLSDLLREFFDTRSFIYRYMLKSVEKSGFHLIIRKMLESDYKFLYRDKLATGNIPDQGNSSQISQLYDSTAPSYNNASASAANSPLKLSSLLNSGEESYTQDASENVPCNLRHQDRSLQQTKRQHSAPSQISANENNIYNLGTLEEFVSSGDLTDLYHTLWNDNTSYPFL
# Experiment: PBM E-score (8-mer binding enrichment) (E-score (-0.5 to 0.5)); higher = stronger / more preferred TF binding; most listed sequences are background and not binding sites
# Settings: protein concentration: 200 nM; construct: GST-full length
# How it was run: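 Masliner-normalised scans of fluorescent anti-GST signal were the basis for scoring. That signal came from GST-tagged yeast transcription factors applied at about 100-200 nM to double-stranded universal all-10-mer Agilent arrays on fresh or once-stripped slides. Each ungapped eight-base word, pooled with its reverse complement, received an E-score from the Universal PBM Analysis Suite.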
row,Sequence,PBM E-score
1,GGGGTACC,-0.0641
2,AGTGGTTA,-0.112
3,AGGGTAGG,-0.0038
4,CCATACGC,-0.00666
5,AAGCCTTA,-0.178
6,GTCGTGCA,-0.0964
7,AAAGACTG,-0.367
8,GCGGCGAA,0.251
9,TAGTAGAA,0.0283
10,ATTGTAGA,-0.0569
11,GGGCTTAA,-0.187
12,ATGGATCC,0.295
13,GATTCGAC,0.00864
14,ATGGGGTA,0.0341
15,TCGGAAGA,0.359
16,GTACCAAA,0.0429
17,GGGTTGTA,-0.0802
18,CGAGGACG,0.123
19,AACCTCAA,-0.0891
20,CATATGCG,0.0754
21,GGCTCTTA,-0.117
22,GTCCGGTA,0.181
23,ATTTACCG,0.224
24,CGTATTTC,-0.0107
25,GGTAGAGA,-0.0811

row,Sequence,PBM E-score
1,AAATCGCG,0.0946
2,CAATACCA,-0.0109
3,TCTACTAA,0.00656
4,TGCGCGAA,0.163
5,TCCATCGA,0.00286
6,ATCTCGCG,0.188
7,GAGCACAC,-0.172
8,CTTCCAAG,-0.0526
9,GTTGCATA,-0.0128
10,GATCCCCA,-0.00094
11,CGAATCTA,-0.114
12,TGGCAGAA,-0.0306
13,CCCTGTTC,-0.00603
14,CAACTGGG,-0.063
15,AACATAAG,0.0625
16,CACTCAGG,-0.0441
17,AACCCACC,0.161
18,GACACCGA,-0.0206
19,AGCAGCTA,-0.0934
20,CCAATCGA,-0.063
21,GATACTTA,-0.0634
22,AGTCTCAG,-0.235
23,ATCTACTA,-0.00583
24,AAGCCATG,-0.12
25,ATGTTAAC,-0.0193

row,Sequence,PBM E-score
1,ACTGTTTA,-0.238
2,CGTAAATA,-0.0294
3,ATTTTCCG,0.432
4,ATTCGTTA,0.0334
5,AATCTTGA,-0.112
6,CGGACTGC,0.241
7,AATGCATG,0.149
8,ATTGAGCG,0.0113
9,GTCGATCA,-0.202
10,GCCCGGTA,0.102
11,GGTTTCAA,0.0896
12,ACTTTCTC,-0.0778
13,CGCCCGCA,0.174
14,CACGCTAA,-0.0591
15,AGTGCCTG,-0.0471
16,AGCATGCC,0.121
17,GGAAGTCA,0.225
18,GGGGTCAA,-0.0321
19,AAACGAGA,-0.0232
20,AATGCTTA,-0.284
21,GCTGCCCC,0.034
22,AGGCATGG,0.0628
23,ACCCATAA,0.0111
24,CAGTTAAC,0.0887
25,GCCCCCTA,-0.223

row,Sequence,PBM E-score
1,AGATCGAG,-0.0852
2,AACTAGAA,-0.0726
3,GTCAGGAC,-0.164
4,CCTAACCC,-0.284
5,ACGATGCT,-0.128
6,ATTTTCGA,-0.136
7,GATGTCCC,0.128
8,GCCTTAGC,-0.138
9,GTGGTCTA,-0.149
10,AATAGAAC,0.113
11,CAGTTGAC,0.00129
12,CCGCGCCA,0.144
13,GCGTTGAA,0.0302
14,AGCGCCCG,0.0616
15,ACACCGTC,-0.0357
16,CTAGTAGA,-0.0894
17,CACGGCCC,-0.0443
18,CTTGGGAA,-0.0131
19,ACCCAACG,-0.0946
20,ATCCATAC,-0.112
21,GGGAGTAC,-0.0731
22,GGGTAGAA,-0.123
23,ATGAAATA,0.108
24,TGAACTCA,-0.177
25,GCCCTGAA,-0.0391

row,Sequence,PBM E-score
1,AATCGCTA,-0.0448
2,CCTAAAGC,-0.28
3,AAACTCCC,0.138
4,AAGATTAG,-0.0582
5,GCAGGCCC,-0.146
6,CTTCAACC,0.00827
7,ATATGGAC,-0.144
8,CCCATTCC,0.234
9,AAGACTTC,-0.253
10,CCGATACG,0.0982
11,ACTCCTGG,-0.134
12,CCGTCAGG,0.132
13,GTAATGGA,0.026
14,GACCATGC,-0.0171
15,CAACGTCA,-0.1
16,TCCAAAAA,-0.132
17,GAGACCGA,0.0506
18,AGCCTGCC,-0.0831
19,GGCGCCGA,0.314
20,AACGAACA,0.168
21,ATACAAAC,0.102
22,GTACTTAA,-0.229
23,CACAGGTC,-0.118
24,ATAGGCCG,0.0836
25,CACGTTCG,-0.0145

row,Sequence,PBM E-score
1,CTAGGAGA,-0.191
2,AACCGCGT,0.141
3,TGACTCCA,-0.204
4,TTAATAAA,0.0974
5,GAATTGGA,-0.041
6,CGTTGCCC,0.101
7,CCCCTAAG,-0.135
8,CACGTAGC,-0.256
9,CATGAACC,0.179
10,ATAGTGGG,0.00433
11,ACCACGCG,-0.0399
12,GTCAACCA,-0.227
13,ATGACGAC,0.00058
14,ACTAAACA,-0.168
15,CGTCATTA,0.00076
16,AACCAACA,-0.00136
17,CGTTTATC,0.0534
18,ATCATCCC,0.0931
19,CGCGTGGA,-0.0579
20,CGTGGCAG,-0.0151
21,GTTAGGGA,-0.12
22,ACTCACGG,0.262
23,ACCGTGGA,0.174
24,CAGTAAGA,-0.0579
25,CCGACGAA,0.193

row,Sequence,PBM E-score
1,GCCTAGGC,-0.0544
2,ACGTCTAG,-0.158
3,CCTGGCTC,-0.0432
4,AGTGACCG,0.00937
5,AGGTGAGC,-0.18
6,ACCCCCTG,-0.236
7,GCCTGACC,-0.0865
8,AGTGGTGC,-0.0226
9,ACCAATGC,0.0796
10,CCATCCGG,0.282
11,CGATATAA,-0.00948
12,CCGGAAAA,0.44
13,AGAATTGG,-0.0572
14,AATTTGGA,-0.231
15,CAAAGTAA,0.107
16,ACCCTTCG,-0.0521
17,ACTTCAAA,-0.186
18,ACTTTCGG,0.14
19,AACGATTC,0.0286
20,CAAGTCGG,0.0937
21,GTAGGCAC,-0.0416
22,CTACACAG,-0.305
